Experimental data as given in paper PMC4336329 (PLoS ONE, 2015).
The campaign covered roughly 310,000 compounds. About 2,200 (0.71%) showed an effect of 50% or more. Effects have a minus sign here. The list shows a part of the results.

biological target: human ether-à-go-go-related gene (hERG) potassium channel (human, UniProt Q12809); assay: primary screen, population patch clamp on CHO cells stably expressing hERG
Sequence (Q12809 whole entry, looked up): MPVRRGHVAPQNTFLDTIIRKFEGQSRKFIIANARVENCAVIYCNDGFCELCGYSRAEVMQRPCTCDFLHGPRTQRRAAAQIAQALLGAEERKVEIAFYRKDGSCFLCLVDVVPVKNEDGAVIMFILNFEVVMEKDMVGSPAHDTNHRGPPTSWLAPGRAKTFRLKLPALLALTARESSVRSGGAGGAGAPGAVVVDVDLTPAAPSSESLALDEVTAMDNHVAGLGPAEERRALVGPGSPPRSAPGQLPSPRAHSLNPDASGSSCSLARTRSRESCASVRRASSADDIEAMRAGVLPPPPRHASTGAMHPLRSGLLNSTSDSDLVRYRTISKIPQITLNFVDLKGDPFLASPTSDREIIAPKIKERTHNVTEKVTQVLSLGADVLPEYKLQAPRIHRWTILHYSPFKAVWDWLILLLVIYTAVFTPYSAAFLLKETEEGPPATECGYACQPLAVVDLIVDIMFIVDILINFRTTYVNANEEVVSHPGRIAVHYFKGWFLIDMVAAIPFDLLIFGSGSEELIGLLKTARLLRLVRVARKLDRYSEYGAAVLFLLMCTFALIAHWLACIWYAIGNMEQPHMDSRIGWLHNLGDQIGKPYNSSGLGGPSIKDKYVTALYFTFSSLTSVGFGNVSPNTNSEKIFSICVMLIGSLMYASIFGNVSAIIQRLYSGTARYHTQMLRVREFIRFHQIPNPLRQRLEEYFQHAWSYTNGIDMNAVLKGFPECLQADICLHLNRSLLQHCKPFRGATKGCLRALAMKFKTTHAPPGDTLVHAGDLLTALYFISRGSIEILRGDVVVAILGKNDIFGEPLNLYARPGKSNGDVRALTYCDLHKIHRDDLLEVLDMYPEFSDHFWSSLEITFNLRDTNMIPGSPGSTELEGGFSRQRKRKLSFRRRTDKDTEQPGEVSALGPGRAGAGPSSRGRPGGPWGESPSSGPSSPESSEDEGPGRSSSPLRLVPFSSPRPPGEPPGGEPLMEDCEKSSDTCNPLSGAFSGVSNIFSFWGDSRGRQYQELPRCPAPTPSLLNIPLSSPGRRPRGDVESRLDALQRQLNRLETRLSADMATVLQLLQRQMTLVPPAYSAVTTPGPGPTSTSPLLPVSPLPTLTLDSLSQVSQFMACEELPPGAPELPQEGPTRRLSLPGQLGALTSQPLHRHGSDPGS

Structure (SMILES)	hERG current change (%, negative = inhibition) at 1uM [%]
CC(C)NC(=O)c1ccccc1NC(=O)CCS(=O)(=O)Cc1ccccc1	4.55
CCN1CCN(C(=O)c2nn(-c3ccc(OC)cc3)c(=O)c3c2c2ccccc2n3C)CC1	5.88
CCc1nnc(NC(=O)c2csc3c2CCC(C)C3)s1 (stereo not drawn)	0.835
COc1ccc(Cl)cc1C(=O)Nc1ccc(NC(=O)C(C)C)cc1	126
CCC(=O)Nc1ccc(C(=O)CSc2nnc(-c3cccnc3)o2)cc1	4.01
CCSC1=C(C#N)C(c2ccc(OC)c(OC)c2)CC(=O)N1 (stereo not drawn)	10.7
CC(=O)c1sc(NC(=O)c2ccccc2F)nc1-c1ccccc1	10.7
CC(C)c1nnc(NC(=O)CSc2nc3ccccc3[nH]2)s1	12.4
Cc1ccc(Cn2c(O)c(N=NC(=S)Nc3ccccc3F)c3ccccc32)cc1	16.7
COc1ccc(CCNC(=O)c2oc3ccccc3c2C)cc1	5.41
COc1ccc(OC)c(CN2CCC(CNC(=O)Nc3cccc(Cl)c3)CC2)c1	-26.3
Cc1noc(C)c1COc1ccccc1C(=O)N1CCN(S(=O)(=O)c2cccc([N+](=O)[O-])c2)CC1	-1.43
COc1ccc(NC(=O)CSc2nnc(-c3ccccc3Cl)n2Cc2ccco2)c(OC)c1	0.435
O=C(CNc1n[nH]c(=O)[nH]c1=O)N/N=C/C1CC=CCC1 (stereo not drawn)	3.87
CCn1c(CNC(=O)c2ccco2)nnc1SCC(=O)Nc1cc(C)c(C)cc1Br	3.54
Cl.OC(c1ccc(F)cc1)(C1CCCCC1)C(CN1CCOCC1)c1ccccc1 (stereo not drawn)	12.9
Cn1ccnc1C(=O)c1ccc(S(=O)(=O)N2CCCC2)cc1	16.4
COc1cc2[nH]c(=S)nc(NCCC(C)C)c2cc1OC	13.8
Cc1ccc(C(=O)Nc2ccccc2N2CCCCC2)cc1	9.06
CC(=O)c1cccc(NC(=S)N2CCC(Cc3ccccc3)CC2)c1	17.3
COc1cccc2c(=O)n(CC(=O)NCCc3ccccc3)ccc12	10.7
Cc1cc(C)c(S(=O)(=O)N2CCCCC2C(=O)O)c(C)c1 (stereo not drawn)	10.8
COCCNC(=O)C1CC(c2cccc(OC)c2)=NO1 (stereo not drawn)	-0.278

Structure (SMILES)	hERG current change (%, negative = inhibition) at 1uM [%]
Oc1[nH]c2ccccc2c1C1=NCCCC1	15.9
CCOC(=O)C(NC(=O)c1ccccc1)(OCC1(CC)COC1)C(F)(F)F (stereo not drawn)	-2.89
CC(=O)NC(C1C(=O)CC(C)(C)CC1=O)(C(F)(F)F)C(F)(F)F	7.21
Cc1ccc(-c2nc(C)sc2CC(=O)Nc2cccc(C)c2C)cc1	4.47
COc1cc(OC)nc(NC2OC(=O)c3ccccc32)n1 (stereo not drawn)	9.28
COC(=O)C(Cc1ccc(O)cc1)NC(=O)C12CC3CC(CC(C3)C1)C2 (stereo not drawn)	15.2
CC(C)(C)c1ccc(C(=O)N2CCC3(CC2)NCCc2[nH]cnc23)cc1	9.93
COC(=O)c1c(C(=O)OC)c(-c2ccccc2)n2c1CCC2	5.69
O=S(=O)(Nc1ccc(C(F)(F)F)cc1)c1cnc[nH]1	13.1
Cc1ccc(S(=O)(=O)CC(=O)N2CCCC2)cc1	3.78
COc1ccc(OC)c(S(=O)(=O)N2Cc3ccccc3CC2C(=O)O)c1 (stereo not drawn)	2.8
CC(C)OC(=O)CSc1nnc(-c2cnccn2)n1-c1ccc(Cl)cc1	-1.22
Cc1cc(C)c2nc(C(F)(F)F)c(C#N)c(N)c2c1	10.6
Cc1cc(Cl)cc(Br)c1OCCNCC(C)O (stereo not drawn)	8.08
Cc1ccc(Nc2ncnc(N)n2)cc1	6.31
CN(CC(=O)Nc1ccc2c(c1)OCCO2)S(=O)(=O)c1ccc(Br)s1	14.2
O=C(COc1ccccc1F)N1c2ccccc2CCc2ccccc21	10.8
Cc1cc(C)c(C)c(S(=O)(=O)ON2C(=O)c3ccccc3C2=O)c1C	7.8
COc1ccc(S(=O)(=O)N2CCOC2CNC(=O)C(=O)NCCN2CCOCC2)cc1 (stereo not drawn)	12.6
COc1cc(OC)c(S(=O)(=O)N2CCOCC2)cc1S(=O)(=O)N1CCOCC1	6.2
Cc1ccc(C2Oc3ccccc3C3=C2C(c2cccs2)n2ncnc2N3)cc1 (stereo not drawn)	3.38
COc1ccccc1C(=O)N1CCNC(=O)C1CC(=O)Nc1cccc(C)c1 (stereo not drawn)	12.3
COc1ccc(OC)c(C(=O)c2coc3cc(Br)c(O)c(Br)c23)c1	8.23

Structure (SMILES)	hERG current change (%, negative = inhibition) at 1uM [%]
Cc1ccc(C)c(NS(=O)(=O)c2ccc(NC(=O)CSc3ccc(Cl)cc3)cc2)c1	9.54
CC(C)(C)C(O)C(Cc1ccccc1Cl)n1cncn1 (stereo not drawn)	10.3
COc1cccc(COc2ccccc2C2Nc3ccc(Br)cc3C(=O)N2NC(=O)c2ccncc2)c1 (stereo not drawn)	-0.308
COc1cccc(-c2cc(C(=O)NCc3cccs3)no2)c1	7.46
COc1ccc(-c2c(-c3ccc(O)cc3O)n[nH]c2C(F)(F)F)cc1	9.35
CN1C(=O)C(CC(=O)NCC2CCCCC2)SC1=Nc1ccccc1 (stereo not drawn)	3.25
COC(=O)C1=NN(C(=O)c2cccc(Br)c2)C(O)(c2ccc(Cl)cc2)C1 (stereo not drawn)	14.6
Cc1ccc(S(=O)(=O)NC(CC(=O)N2CCC3(CC2)OCCO3)c2ccco2)cc1 (stereo not drawn)	9.12
O=Cc1coc2ccc3ccccc3c2c1=O	14.3
Cc1cccn2c(=O)nc(SCC(=O)N3CCCCCC3)nc12	3.17
O=C(O)Cc1ccc(NS(=O)(=O)c2ccc3ccccc3c2)cc1	2.56
CCN(C(=O)COC(=O)c1cc(-c2ccccc2)nc2c1c(C)nn2-c1ccccc1)C1CCS(=O)(=O)C1 (stereo not drawn)	10.7
CC(C)c1ccc(OCC(=O)NNC(=S)NC(=O)c2ccco2)c(Br)c1	3.25
COc1cccc(C(=O)C2CCCN(Cc3cccc4c3OCO4)C2)c1 (stereo not drawn)	-6.88
O=C(N1CCOCC1)N1CCN(S(=O)(=O)N2CCCCC2)CC1	-1.58
Cc1ccnc(SCc2cc(=O)c(OC(=O)c3ccco3)co2)n1	10.7
COCCCN1CC(=O)N2C(c3ccccc3)c3[nH]c4ccccc4c3C[C@H]2C1=O (stereo partly drawn)	11.9
Cc1c(C(=O)N2CCOCC2)oc2ccc(Br)cc12	-14.4
O=S(=O)(Nc1ccc(C(F)(F)F)cn1)c1ccccc1	13.5
CC(C)Sc1nc2c(cnn2-c2ccc(F)cc2)c(=O)[nH]1	14.2
Cc1ccccc1NC(=O)c1cnc2ccccn2c1=O	6.65
Clc1ccc(OCc2nc(-c3ccccn3)no2)c(Br)c1	10.3
CCOC(=O)Nc1cccc(OCC(=O)Nc2ccccc2OC)c1	10.7

Structure (SMILES)	hERG current change (%, negative = inhibition) at 1uM [%]
COc1ccc(CN2CC(C(=O)NCCc3ccc(C)cc3)CC2=O)cc1 (stereo not drawn)	-2.06
CC1(C)Cc2c(C#N)c(N)n(-c3ccccc3)c(=S)c2CO1	19.1
Fc1ccccc1NC(=S)N1CCN(C/C=C/c2ccccc2)CC1	7.89
CCOc1ccc(S(=O)(=O)N2CCCC(C(=O)NCc3ccccn3)C2)cc1 (stereo not drawn)	10
Cc1ccc(C)c(N2CCN(C(=O)c3ccc(Cn4c(=S)[nH]c5ccc(N6CCOCC6)cc5c4=O)cc3)CC2)c1	-5.12
O=C(OCCOCn1cc(Br)c(=O)[nH]c1=O)c1ccccc1	12.4
O=c1[nH]c(O)c(C=Nc2ccccc2Sc2ccccc2)c(=O)[nH]1	10.6
Cc1cccc(C(=O)N2CCN(c3ncnc4c3cnn4-c3ccccc3)CC2)c1	-6.01
CCCCOc1cccc(/C=C(\C#N)C(=O)NC2CC2)c1	5.3
COc1ccc(OCC(=O)NC(=S)Nc2ccc(S(=O)(=O)Nc3cc(C)on3)cc2)cc1	7.55
Cc1ccc(NC(=O)CCNC(=O)Cn2ccc3ccccc3c2=O)cc1F	18.7
COC(=O)[C@H](C)NC(=O)Nc1ccccc1C(F)(F)F	7.72
COC(=O)c1ccc(CSc2nc3ccccc3c(=O)n2CC(C)C)o1	-1.69
CC1CCN(C2=NN3C(=N)/C(=C\c4ccc(OC(=O)c5ccco5)cc4)C(=O)N=C3S2)CC1	9.23
CC(C)Oc1ccc(/C(O)=C2/C(=O)C(=O)N(CCN(C)C)C2c2cccs2)cc1 (stereo not drawn)	4.41
O=NN1CCCCC1	9.3
CN(C(=O)c1ccncc1)c1nnc(-c2cccnc2)s1	12.8
CC#CCN1C(=O)N[C@@H](c2ccccc2)C(C(=O)OC)=C1C	14.7
COc1ccc(NC(=O)CSc2ccc(-c3cccs3)nn2)c(OC)c1	9.11
CCOC(=O)C(=CN=C(N)Nc1nc2ccccc2o1)C(=O)OCC	14.6
O=C(NC1CC1)C1=C[C@H](c2c[nH]c3ccccc23)C[C@H](OCc2ccc(CO)cc2)O1	12.4
